Where a name gives a salt, the structure may show the parent alone. ± gives the standard deviation of the averaged measurements. Some of the results follow.
How the values were obtained:
Conditions in all cases: priming compound concentration 100 µM
hAMSC donor 1 [1] = experiment: Hoechst total cell count ratio vs vehicle control; higher = more cells (less toxicity)
hAMSC donor 2 [2] = experiment: as above
hAMSC donor 1 [3] = experiment: transgenic luciferase activity (RLU/mg protein) fold change vs vehicle control (ratio); higher = more transgene expression
hAMSC donor 2 [4] = experiment: as above
hAMSC donor 1 [5] = experiment: transfection efficiency (EGFP+ cells / Hoechst count) fold change vs vehicle control (ratio); hAMSC are human adipose-derived mesenchymal stem cells given an EGFP-luciferase plasmid by lipofection; higher = enhanced transfection
hAMSC donor 2 [6] = experiment: as above
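Throughout, for Hoechst total cell count ratio vs vehicle control: compound added 30 min before Lipofectamine 3000 lipoplex delivery, triplicate-well means expressed against DMSO vehicle control wells of the same 96-well plate.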
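Throughout, for transfection efficiency (EGFP+ cells / Hoechst count) fold change vs vehicle control: compounds added 30 min before Lipofectamine 3000 lipoplex transfection, triplicate means relative to DMSO vehicle wells on the same plate, luciferase RLU normalized to BCA total protein.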
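Throughout, for transgenic luciferase activity (RLU/mg protein) fold change vs vehicle control: compounds in DMSO added 30 min before Lipofectamine 3000 transfection of pEGFP-Luc in 96-well plates, values are means of triplicate wells over DMSO vehicle wells on the same plate.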

Row | SMILES | Hoechst total cell count ratio (hAMSC donor 1 [1]) | Hoechst total cell count ratio (hAMSC donor 2 [2]) | transgenic luciferase activity (hAMSC donor 1 [3]) | transgenic luciferase activity (hAMSC donor 2 [4]) | transfection efficiency (hAMSC donor 1 [5]) | transfection efficiency (hAMSC donor 2 [6])
1 | C=CC[C@@H]1/C=C(\C)C[C@H](C)C[C@H](OC)[C@H]2O[C@@](O)(C(=O)C(=O)N3CCCC[C@H]3C(=O)O[C@H](/C(C)=C/[C@@H]3CC[C@@H](O)[C@H](OC)C3)[C@H](C)[C@@H](O)CC1=O)[C@H](C)C[C@@H]2OC [Tacrolimus] | 0.131 ± 0.064 | 0.124 ± 0.074 | 0.0338 ± 0.031 | 0.00184 ± 0.00052 | 0.42 ± 0.44 | 0.138 ± 0.036
2 | CCN1CCCC1CNC(=O)c1cc(S(=O)(=O)CC)c(N)cc1OC (configuration not stated) [Amisulpride] | 1.25 ± 0.21 | 1.37 ± 0.038 | 0.86 ± 0.13 | 0.826 ± 0.27 | 0.744 ± 0.1 | 0.985 ± 0.2
3 | O=c1c(O[C@@H]2O[C@H](CO)[C@@H](O)[C@H](O)[C@H]2O)c(-c2ccc(O)c(O)c2)oc2cc(O)cc(O)c12 [Isoquercitrin] | 1.15 ± 0.037 | 1.5 ± 0.1 | 0.555 ± 0.22 | 0.783 ± 0.031 | 0.943 ± 0.21 | 0.714 ± 0.16
4 | Cc1ccsc1C(=CCCN1CCC[C@@H](C(=O)O)C1)c1sccc1C [Tiagabine hydrochloride] | 1.54 ± 0.23 | 1.56 ± 0.13 | 0.701 ± 0.069 | 0.786 ± 0.09 | 0.642 ± 0.29 | 0.627 ± 0.089
5 | COC1=C(OC)C(=O)C(CCCCCCCCCCO)=C(C)C1=O [Idebenone] | 0.704 ± 0.097 | 0.549 ± 0.063 | 0.626 ± 0.2 | 0.455 ± 0.19 | 0.963 ± 0.18 | 0.738 ± 0.18
6 | C/C=C1\[C@H]2C=C(C)C[C@]1(N)c1ccc(=O)[nH]c1C2 [Huperzine A] | 2.19 ± 0.074 | 1.01 ± 0.021 | 1.07 ± 0.31 | 1.37 ± 0.17 | 0.761 ± 0.13 | 0.759 ± 0.13
7 | NNCCc1ccccc1 [Phenelzine sulfate] | 1.28 ± 0.088 | 0.957 ± 0.077 | 2.01 ± 1 | 2.62 ± 1.1 | 1.35 ± 0.44 | 1.25 ± 0.17
8 | CCn1cc(C(=O)O)c(=O)c2cc(F)c(N3CCNCC3)cc21 [Norfloxacin] | 1.46 ± 0.24 | 1.93 ± 0.41 | 1.52 ± 0.64 | 1.31 ± 0.48 | 0.981 ± 0.15 | 1.41 ± 0.23
9 | CC(C)/N=c1\cc2n(-c3ccc(Cl)cc3)c3ccccc3nc-2cc1Nc1ccc(Cl)cc1 [Clofazimine] | 0.959 ± 0.067 | 0.931 ± 0.071 | 0.805 ± 0.38 | 0.573 ± 0.066 | 0.575 ± 0.28 | 0.542 ± 0.026
10 | O=S(=O)(O)CCS [Mesna] | 1.13 ± 0.14 | 1.5 ± 0.087 | 1.11 ± 0.37 | 0.86 ± 0.32 | 1.13 ± 0.17 | 0.879 ± 0.038
11 | COC(=O)Nc1nc2cc(C(=O)c3ccc(F)cc3)ccc2[nH]1 [Flubendazole] | 0.878 ± 0.14 | 0.788 ± 0.012 | 0.789 ± 0.68 | 0.526 ± 0.35 | 1.28 ± 0.097 | 0.673 ± 0.16
12 | OC[C@H]1O[C@@H](Oc2cc(O)cc(/C=C/c3ccc(O)cc3)c2)[C@H](O)[C@@H](O)[C@@H]1O [Piceid] | 1.29 ± 0.098 | 0.923 ± 0.2 | 0.595 ± 0.15 | 0.54 ± 0.19 | 1.07 ± 0.2 | 1.39 ± 0.19
